From PubChem BioAssay AID686978 (National Center for Advancing Translational Sciences (NCATS), 2013)
Hit rate of the full screen: of about 420,000 compounds, about 64,000 (15%) were called active. Inconclusive results, whose numbers are uncertain, are shown with a selection of clear calls. Calls come from the whole dose curve; as a rule, active = well fitted inhibition curve with a large enough effect; inconclusive = small, poorly fitted or top-dose-only effect; inactive = flat fitted curve, though single readings scatter. No potency is given beside an inconclusive call; the fits are too rough.

experiment: qHTS for Inhibitors of human tyrosyl-DNA phosphodiesterase 1 (TDP1): qHTS in cells in absence of CPT; details: DT40 Tdp1-/- hTDP1 cells, no CPT, ATP luminescence, 48 h; activity change, negative = growth inhibition: at 46.2 µM (top of the series) unless noted; note: nearly all actives have a fitted effect of over 55% in size
Procedure, shortened: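 DT40 Tdp1-/-;hTDP1 cells, no CPT (DMSO vehicle only), 400 cells/well; compounds pin-transferred; ≥48 hr, 37 °C; CellTiter-Glo 30 min RT dark, luminescence read.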
% is set by controls: 0 for no effect and ±100 for the full control effect; potency is the fitted concentration of half-maximal effect; tags give direction and shape of the fitted curve.

SMILES	activity change, negative = growth inhibition	Potency
CN(CC(=O)Nc1c(Cl)cccc1Cl)C(=O)c1ccc2nc[nH]c2c1	inactive: -19.2%	–
Cc1ccc(N=C2C(=O)Nc3ccc(C)c(Br)c32)cc1	–	inconclusive [inhibitor, single point]
NC1=NC(=O)/C(=C\c2cc([N+](=O)[O-])ccc2Cl)S1	–	inconclusive [inhibitor, full curve]
O=C(CNC(=O)c1ccc(Br)o1)NCC1COc2ccccc2O1 (stereo unspecified)	inactive: 1.72%	–
CCN1CCC(NCCc2ccc(F)cc2)CC1	–	inconclusive [inhibitor, single point]
CCCNC(=O)N[C@H]1C=C[C@H](CC(=O)NC2CCCCC2)O[C@@H]1CO	–	inconclusive [inhibitor, single point]
CCOC(=O)C1(CCCc2ccccc2)CCN(C(=O)CCc2cnn(C)c2)CC1	–	inconclusive [inhibitor, single point]
Cc1ccc(S(=O)(=O)N2[C@@H](c3ccc(C(C)(C)C)cc3)C(C(=O)O)=CC[C@H]2c2ccc(Cl)cc2)cc1	–	inconclusive [inhibitor, single point]
CN(CCc1ccccc1)C(=O)c1ccc(NC(=O)Cc2ccc(NC(=O)C3CCCN(C(=O)C4CC4)C3)cc2)cc1 (stereo unspecified)	inactive: -27.2%	–
C/C(=N\NC(=O)c1cccc(S(=O)(=O)Nc2ccccc2Cl)c1)c1ccco1	inconclusive: -33.5% [inhibitor]	–
CN(CCNC(=O)C1CCC(=O)N(Cc2ccc(Cl)cc2)C1)CCc1ccccc1 (stereo unspecified)	–	inconclusive [inhibitor, single point]
Cc1ccc(CNC(=O)C(=O)NCC(c2cccs2)S(=O)(=O)c2ccc(C)cc2)cc1 (stereo unspecified)	–	inconclusive [inhibitor, single point]
COc1cc(/C=C/C(=O)OCC(=O)NCc2ccccc2OC)ccc1O	inactive: -10.8%	–
CC(C)(C)OC(=O)C[C@@H]1C/C=C\C[C@H](CC(=O)N(CCO)Cc2ccccc2)C(=O)N2CCC[C@H]2COC1=O	–	inconclusive [inhibitor, single point]
CC1Oc2ccccc2N(CC(=O)Nc2ccc3c(c2)OCCO3)C1=O (stereo unspecified)	–	inconclusive [inhibitor, partial curve, poor fit]
CCC1CCCCN1C(=O)CCS(=O)(=O)c1ccccc1 (stereo unspecified)	inactive: 24.4%	–
O=C1CCc2cc(NS(=O)(=O)c3ccc(Br)cc3)cc3c2N1CC3	inactive: -7.47%	–
Cc1ccc(NCc2ccc(O)c3ncccc23)cc1	–	inconclusive [inhibitor, single point]
CCOc1c2c(c(-c3ccc4c(c3)OCO4)c3cc(OC)c(OC)cc13)C(=O)OC2	–	active: 0.562 µM
Brc1ccc(C2=CC(c3ccco3)n3ncnc3N2)cc1 (stereo unspecified)	–	inconclusive [inhibitor, single point]
c1csc(CN2CCOCC2)c1	inactive: -2.15%	–
CCC(=O)Nc1cccc(-c2nnc(SCC(=O)c3ccccc3)n2C)c1	inconclusive: -30.2% [inhibitor]	–
Cc1nc2nc(COc3ccccc3)[nH]n2c(=O)c1Cc1ccccc1	–	inconclusive [inhibitor, single point]
Cc1c(C(=O)N(C)Cc2ccccc2)oc2ccc(S(=O)(=O)N3CCCC3)cc12	–	inconclusive [inhibitor, single point]

SMILES	activity change, negative = growth inhibition	Potency
CCN(CC(=O)NCc1cccs1)C(=O)c1ccc(-c2ccccc2F)o1	–	active: 18.4 µM
Cc1noc(C)c1S(=O)(=O)Nc1ccc(C(=O)Nc2ccc(OC(F)(F)F)cc2)cc1	–	inconclusive [inhibitor, single point]
CCCCNC(=O)c1ccc2c(OCC)n(CCCC)nc2c1	inactive: 6.94%	–
COc1cccc(C(=O)Cn2c(=O)n(CC3CCCO3)c(=O)c3ccccc32)c1 (stereo unspecified)	–	inconclusive [inhibitor, single point]
COc1cccc(CCN2CCC(CNS(=O)(=O)c3cc(-c4cc(C)no4)ccc3C)CC2)c1	–	inconclusive [inhibitor, single point]
CCc1cc2c(=O)[nH]c(Cc3ccccc3)nc2s1	–	inconclusive [inhibitor, single point]
CN(C)c1ccc(-c2nn3c(-c4ccc(Cl)cc4)nnc3s2)cc1	–	inconclusive [inhibitor, partial curve]
CC(C)c1onc(C(=O)NC2CCCC2)c1[N+](=O)[O-]	–	inconclusive [inhibitor, single point]
O=C(Cn1nnc(-c2ccccc2)n1)N/N=C/c1cc([N+](=O)[O-])c(Cl)cc1Cl	–	inconclusive [inhibitor, full curve, poor fit]
Cc1ccc(-n2cc(CN3CCN(C(=O)c4ncn[nH]4)CC3)c(-c3ccc(F)cc3)n2)cc1	–	active: 23.1 µM
COc1ccc(NC(=O)CCCNC(=O)Cn2cnc3sc(C)c(C)c3c2=O)cc1Cl	inactive: -5.78%	–
COc1ccc([C@H]2CC(=O)C=C(c3cc4ccccc4s3)C2)cc1	–	inconclusive [inhibitor, single point]
c1ccc(OCc2noc(CN3CC[C@@H]4CCCC[C@H]4C3)n2)cc1	–	inconclusive [inhibitor, single point]
O=C(c1ccccc1)c1coc2c1C(=O)c1ccccc1C2=O	–	inconclusive [inhibitor, single point]
CC(C)CC(NS(=O)(=O)c1cccc(C(=O)O)c1)C(=O)O (stereo unspecified)	inactive: -8.76%	–
Cc1ccc2nc(-c3ccc(NC(=O)COC(=O)c4ccc([N+](=O)[O-])o4)cc3)sc2c1	inactive: -23.3%	–
CN(c1ccc(OCC(=O)Nc2ccc(S(N)(=O)=O)cc2)cc1)S(=O)(=O)c1ccc(F)cc1	–	inconclusive [inhibitor, single point]
Fc1cccc(/C=N/Nc2nccnc2Cl)c1	–	active: 14.6 µM
O=C(CN1C(=O)C2CC=CCC2C1=O)OCC(=O)c1ccc(Cl)c([N+](=O)[O-])c1 (stereo unspecified)	–	inconclusive [inhibitor, single point]
CC(=O)Nc1ccc(Nc2nc(-c3ccccc3)nc3ccccc23)cc1	–	active: 23.1 µM
O=C(CCC1CCCN(C(=O)Cn2cnnn2)C1)NCc1ccc(F)c(F)c1 (stereo unspecified)	–	inconclusive [inhibitor, single point]
O=C(NC(=S)Nc1ccccc1N1CCCCC1)c1ccc(F)cc1	inactive: -6.59%	–
O=C(Cc1ccccc1)Nc1ccc2[nH]ncc2c1	inactive: 5.42%	–
COCC1CCN(C(=O)c2ccc(OC3CCN(Cc4ccccn4)CC3)cc2)C1 (stereo unspecified)	inactive: -17.3%	–

SMILES	activity change, negative = growth inhibition	Potency
Cc1nnsc1S(=O)c1ccc(Cl)cc1 (stereo unspecified)	–	inconclusive [inhibitor, partial curve, poor fit]
CCOc1ccc(N2CC(C(=O)Nc3ccncc3)CC2=O)cc1 (stereo unspecified)	inactive: 6.91%	–
c1ccc(-c2noc(CC3CCCCC3)n2)cc1	–	inconclusive [inhibitor, single point]
COc1ccccc1NS(=O)(=O)c1cccc(C(=O)NCC(c2ccccc2OC)N2CCCC2)c1 (stereo unspecified)	–	inconclusive [inhibitor, single point]
CCOc1cc(C2C(C(=O)OC)=CN(Cc3ccc(Cl)cc3)C=C2C(=O)OC)ccc1O	–	inconclusive [inhibitor, partial curve, poor fit]
CCOCCCn1c(SCC(=O)NCc2ccc3c(c2)OCO3)nc2ccccc2c1=O	–	inconclusive [inhibitor, partial curve, poor fit]
CCn1c(=O)c2cc(C(=O)N(CCCOC(C)C)Cc3ccco3)sc2c2ccccc21	–	active: 20.6 µM
CCN(CC)C(=O)C(=O)c1cn(CC(=O)NCC2CCCO2)c2ccccc12 (stereo unspecified)	inactive: 3.1%	–
COc1ccc(SC[C@H](CC(C)C)N2CCN(CCc3ccccc3)CCC2=O)cc1	–	active: 18.4 µM
CCCn1cc(S(=O)(=O)c2ccccc2)c(=O)c2cc(F)c(N3CCN(C)CC3)cc21	inactive: 10.3%	–
CSc1nc(C=Nc2ccccc2Cl)c(O)n1Cc1cccc(Cl)c1	inactive: -1.46%	–
Cc1cccc(C)c1OCC(=O)Nc1cccc(S(=O)(=O)N2CCCCCC2)c1	–	active: 20.6 µM
COc1ccc(N=Cc2nc(-c3ccco3)oc2O)cc1	–	active: 29.1 µM
CCN(CC(=O)NCc1cccs1)C(=O)c1ccc(S(=O)(=O)Nc2ccccc2)cc1	–	inconclusive [inhibitor, single point]
O=C(CCc1ccccc1)NC(=S)NCc1ccco1	–	active: 20.6 µM
COc1cc(C)nc(N(C)S(=O)(=O)c2ccccc2Cl)n1	–	inconclusive [inhibitor, single point]
CCc1ccccc1OCC(=O)Nc1nnc(C2CC2)s1	–	inconclusive [inhibitor, partial curve, poor fit]
CCC(C)(C)NC(=O)C(c1ccc(OC)cc1)N(C(=O)CCC(=O)Nc1cc(C)on1)c1ccccc1F (stereo unspecified)	inactive: -26.6%	–
COCCn1c(SCC(=O)/C=C2\N(C)c3ccccc3C2(C)C)nnc1-c1ccncc1	–	active: 23.1 µM
CCc1ccc2c(c1)cc(CN(C(=S)Nc1ccc(Cl)cc1)C1CC1)c1nnnn12	inconclusive: -30.5% [inhibitor]	–
O=C(NCC(c1ccco1)N1CCc2ccccc21)c1ccccc1Cl (stereo unspecified)	–	inconclusive [inhibitor, single point]
O=C(Cc1cccc(NC(=O)C2CCCN(C(=O)C3CCCC3)C2)c1)Nc1cccc(C(=O)N2CCOCC2)c1 (stereo unspecified)	inactive: -15.9%	–
COc1ccc(C(=O)NC2CC(C)(C)Cc3c2cnn3-c2ccccc2C)o1 (stereo unspecified)	–	inconclusive [inhibitor, single point]
